Measured values taken from the supplement of paper PMC3334620.
Over roughly 33,000 sequences, “E-score (-0.5 to 0.5)” has its median near -0.017; the highest 2% begin near 0.3. The list shows a part of the results.

Each sequence was assayed against T1, Sut1 (UniProt P53032) (assay: PBM E-score (8-mer binding enrichment) (E-score (-0.5 to 0.5)); higher = stronger / more preferred TF binding; most listed sequences are background and not binding sites). Settings: protein concentration: 200 nM; construct: GST-full length.
T1 sequence: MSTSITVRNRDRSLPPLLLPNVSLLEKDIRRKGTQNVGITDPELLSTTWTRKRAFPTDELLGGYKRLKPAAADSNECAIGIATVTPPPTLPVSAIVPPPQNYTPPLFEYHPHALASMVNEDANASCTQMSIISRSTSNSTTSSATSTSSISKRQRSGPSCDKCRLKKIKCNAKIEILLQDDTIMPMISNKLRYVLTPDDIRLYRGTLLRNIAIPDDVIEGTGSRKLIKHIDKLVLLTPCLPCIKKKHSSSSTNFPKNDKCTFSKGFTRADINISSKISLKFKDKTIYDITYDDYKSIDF
Protocol: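 Universal 'all 10-mer' protein binding microarrays (Agilent AMADID 015681) probed with GST-tagged S. cerevisiae TFs (full-length or DBD) made by in vitro transcription/translation (PURExpress), about 100-200 nM. Bound TF was detected with fluorescent anti-GST. Each ungapped 8-mer (which stands for itself and its reverse complement) is scored by the PBM enrichment score (E-score), a modified Wilcoxon-Mann-Whitney statistic from -0.5 to +0.5, computed with the Universal PBM Analysis Suite. Scale: above 0.35 generally sequence-specific binding.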

Row | Sequence | PBM E-score
1 | CTAAGACC | -0.0285
2 | AAGTGCCG | -0.00956
3 | TGGGACCA | -0.111
4 | AGAGCCAA | 0.00258
5 | AAAAAACC | 0.0814
6 | GCTGGACA | -0.168
7 | CCGCGAGG | 0.0858
8 | CTCTTCGA | 0.0214
9 | AGCGGACG | -0.118
10 | AGTCTCCC | -0.0841
11 | AGCTATAT | 0.145
12 | CGCTGAAA | 0.0486
13 | CCCTTCCC | -0.291
14 | GGGCGAGA | -0.219
15 | TCAATTCA | 0.172
16 | GCCTCCTA | -0.172
17 | GAGGCGGC | -0.101
18 | ACTGGTGC | -0.174
19 | GTAGGGAC | -0.271
20 | TAGCCTAA | -0.0657
21 | CATATGAG | -0.0348
22 | GTACGGTA | -0.0214
23 | GGCAGGAA | -0.127
24 | ATCCGAAA | 0.272
25 | ACCAAGAC | -0.072

Row | Sequence | PBM E-score
26 | TCAGTTAA | 0.171
27 | ACTGCATG | -0.121
28 | CACACATC | -0.168
29 | TTCAAAAA | 0.242
30 | TAAGCTTA | 0.0477
31 | CCATCTGA | -0.141
32 | CAAGCAAA | 0.0589
33 | TGGAGACA | -0.113
34 | GTCGGACA | 0.271
35 | AGGATATA | 0.208
36 | GCTTTAGA | -0.00855
37 | CCAGTGTA | -0.0483
38 | AATAGCCT | -0.0867
39 | ACAGCATG | -0.124
40 | GGCGACCA | -0.292
41 | GTAGAACA | -0.233
42 | GGCTGTTA | 0.0481
43 | GCTTTCTA | 0.113
44 | AACTAATT | 0.186
45 | CGTCGTTA | 0.0641
46 | CACACAAG | 0.0136
47 | CGGGACAC | -0.265
48 | CAATGTTA | 0.101
49 | AAAACTGG | 0.149
50 | ACCTCGCC | -0.248

Row | Sequence | PBM E-score
51 | CGAAGCAC | -0.00994
52 | TATACATA | 0.225
53 | ACAGCACT | 0.0434
54 | ATGGTGAC | -0.122
55 | AGGGACTA | -0.165
56 | AATTCCCG | -0.0339
57 | AATGATGG | 0.0762
58 | CAGAACTC | 0.0167
59 | GATAACAC | 0.0535
60 | CAAGAATG | 0.0903
61 | ACATACAC | 0.105
62 | AGGTATCC | 0.0539
63 | GCTGACGA | -0.117
64 | CCCGGAGA | 0.374
65 | CGTGAAAA | 0.194
66 | GTGCTGCA | -0.0495
67 | GGAGGAAA | -0.00077
68 | GCGTGCGA | -0.084
69 | ATCAGGGC | -0.189
70 | CGATAGGC | -0.138
71 | CTTCATCA | 0.0503
72 | CACAAGGA | -0.0575
73 | GTTCGAGA | -0.134
74 | ATAAAGCC | -0.0535
75 | AATTGCGG | 0.119

Row | Sequence | PBM E-score
76 | ACTGGGGG | -0.312
77 | GCGACGCC | -0.15
78 | CGGGTGAC | -0.164
79 | AACTTCCT | 0.0824
80 | CAGTAGAA | -0.0531
81 | CTATTCTA | 0.223
82 | AGAATATG | 0.137
83 | GCCGTCAC | -0.0545
84 | GATCCAAC | -0.00322
85 | CGTTTACC | 0.0614
86 | CTGAGCAG | -0.2
87 | CTTACAAC | 0.196
88 | AACGCCGC | -0.217
89 | CCCTATAG | -0.203
90 | GTAGTAAC | 0.0611
91 | AAGAAGAC | 0.0584
92 | GGACCGAC | 0.0958
93 | CACAGTGG | -0.0778
94 | CCCGATCA | -0.133
95 | AACCCACA | 0.0844
96 | CAGAATTC | 0.138
97 | GACCTGGC | -0.208
98 | GGGATAGA | -0.114
99 | GATGTGCC | -0.183
100 | AACATGGA | -0.0336

Row | Sequence | PBM E-score
101 | CGGCCCTC | -0.216
102 | GGGATCAC | -0.338
103 | AGTAACGG | 0.198
104 | AGGAGTAT | -0.0966
105 | CCGATAGC | 0.0526
106 | AGATAGCC | -0.064
107 | CCCGACGC | -0.175
108 | ATCTTCTG | 0.12
109 | CGCAGACC | -0.189
110 | TACCCATA | -0.151
111 | GCTAGCAC | -0.104
112 | CATCCATA | -0.0827
113 | GGGTGTGA | -0.145
114 | CCTCCGCA | -0.205
115 | GCATTGAC | -0.198
116 | ACAATCGG | 0.259
117 | CACAGGAA | 0.00605
118 | ACTTAGCA | 0.0328
119 | CCACCTCA | -0.227
120 | AATCTCAA | 0.0555
121 | AACACGAC | -0.0446
122 | GGTGTTAC | -0.0536
123 | GAGCTTCC | 0.279
124 | ATGCTGGA | 0.0682
125 | AGACAAAA | 0.0785

Row | Sequence | PBM E-score
126 | GCTCCTCC | -0.138
127 | CACCGCAA | 0.178
128 | AAGTGACA | 0.131
129 | GCAGCGGA | 0.0776
130 | GCACTCGC | -0.0684
131 | ACTTTTTC | 0.123
132 | CAGCCTCA | -0.125
133 | AAAATAGC | 0.0485
134 | AGTAACTG | 0.0218
135 | AGCAAACT | 0.0398
136 | ACGGACAA | 0.272
137 | CGATCGCG | 0.0537
138 | CGTGTTGC | -0.185
139 | CGGTTCTC | -0.0227
140 | CCGCTACG | -0.044
141 | ACCTGTTG | -0.0722
142 | GAGGCACC | -0.341
143 | CAAGGGGC | -0.17
144 | ACACAATG | 0.0741
145 | TAATGACA | 0.12
146 | ACATCCGA | 0.136
147 | AAGACGCG | 0.0741
148 | CACTTATC | -0.00811
149 | ACTGGTAG | 0.0376
150 | CAATTTAA | 0.317

Row | Sequence | PBM E-score
151 | CTGGGCAA | 0.00054
152 | ATATTCAC | 0.172
153 | GGCGTACA | -0.142
154 | ACGACTTC | 0.0627
155 | CCACGTCC | -0.248
156 | CATTAGAC | -0.151
157 | AGAGCGAA | 0.0259
158 | GAGGGGTA | -0.286
159 | GCTCATGA | -0.172
160 | AGCGAGTA | 0.0674
161 | GGATGGCC | -0.311
162 | AGTGCCAA | -0.219
163 | ACTGGCAC | -0.183
164 | GATCTCAA | 0.0447
165 | CTGAGACC | -0.314
166 | GGGTTTAC | 0.0633
167 | TATAAATA | 0.343
168 | ATACCTAA | 0.274
169 | ATACGCCG | -0.0434
170 | AACCTGCA | 0.036
171 | AACGGGCG | -0.159
172 | AATACATA | 0.21
